# According to paper PMC4336329 (PLoS ONE, 2015):
# The campaign covered roughly 310,000 compounds. About 2,200 (0.71%) showed an effect of 50% or more. The effect is printed as a negative number. Some of the results follow.
# Biological target: human ether-à-go-go-related gene (hERG) potassium channel (human, UniProt Q12809)
# Assay: primary screen, population patch clamp on CHO cells stably expressing hERG
# human ether-à-go-go-related gene (hERG) potassium channel, sequence (Q12809 whole entry, looked up): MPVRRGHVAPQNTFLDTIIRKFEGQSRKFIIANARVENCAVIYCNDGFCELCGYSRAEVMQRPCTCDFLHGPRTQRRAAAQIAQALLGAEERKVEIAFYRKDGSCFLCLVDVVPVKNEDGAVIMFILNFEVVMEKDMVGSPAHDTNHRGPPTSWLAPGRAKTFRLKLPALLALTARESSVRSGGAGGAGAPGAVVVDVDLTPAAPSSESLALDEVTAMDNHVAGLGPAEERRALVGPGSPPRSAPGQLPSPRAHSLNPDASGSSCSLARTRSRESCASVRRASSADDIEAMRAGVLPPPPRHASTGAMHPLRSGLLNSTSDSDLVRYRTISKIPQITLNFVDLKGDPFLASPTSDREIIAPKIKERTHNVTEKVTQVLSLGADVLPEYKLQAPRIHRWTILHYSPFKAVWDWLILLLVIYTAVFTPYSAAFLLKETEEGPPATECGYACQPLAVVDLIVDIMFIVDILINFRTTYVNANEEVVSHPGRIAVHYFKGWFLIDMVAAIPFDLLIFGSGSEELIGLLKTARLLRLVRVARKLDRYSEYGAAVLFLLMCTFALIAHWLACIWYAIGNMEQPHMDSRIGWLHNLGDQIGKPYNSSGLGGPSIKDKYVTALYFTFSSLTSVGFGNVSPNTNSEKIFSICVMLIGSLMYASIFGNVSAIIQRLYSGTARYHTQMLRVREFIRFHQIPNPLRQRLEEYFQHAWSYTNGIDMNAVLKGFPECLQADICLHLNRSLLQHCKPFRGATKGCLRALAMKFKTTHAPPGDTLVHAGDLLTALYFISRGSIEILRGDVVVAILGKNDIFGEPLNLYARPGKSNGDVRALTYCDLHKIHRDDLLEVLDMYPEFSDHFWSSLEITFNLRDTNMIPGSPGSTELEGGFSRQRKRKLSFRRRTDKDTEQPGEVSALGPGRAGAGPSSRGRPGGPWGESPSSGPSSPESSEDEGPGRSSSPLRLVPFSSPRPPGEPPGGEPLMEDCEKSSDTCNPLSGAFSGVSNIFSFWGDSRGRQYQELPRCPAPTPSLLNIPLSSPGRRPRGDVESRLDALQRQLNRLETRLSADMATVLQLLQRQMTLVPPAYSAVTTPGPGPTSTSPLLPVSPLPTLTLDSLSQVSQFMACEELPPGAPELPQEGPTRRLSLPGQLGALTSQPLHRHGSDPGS
row,SMILES,"hERG current change (%, negative = inhibition) at 1uM [%]"
1,CC1CCCC(C)N1C(=O)CSc1nnc(COc2ccc(F)cc2)o1 (stereo not shown),9.68
2,CCn1c(SCC(=O)Nc2nc(C)c(C)s2)nc2cccnc21,6.61
3,O=C(Cn1ncc2c(=O)oc3ccccc3c21)N1CCCc2ccccc21,-0.534
4,CCc1ccc(C(C(=O)NCc2ccccc2)N(C(=O)c2csnn2)C2CC2)cc1 (stereo not shown),-0.36
5,C=CCN(c1cccc(C(F)(F)F)c1)S(=O)(=O)c1cccc(C(=O)OCC(=O)NC(N)=O)c1,8.38
6,CCOC(=O)c1cc(-c2ccccc2)sc1NC(=O)C(C)C,20.2
7,O=C(Nc1nc(-c2ccc(Cl)s2)cs1)c1ccccc1,-5.4
8,CCc1cccc2c(=O)c(C(=O)N3CCCCCC3)c[nH]c12,3.56
9,CCOC(=O)c1c(C)[nH]c(C(=O)NNC(=O)c2ccccc2)c1C,-4.25
10,CC1(c2nnc(-c3ccc(F)cc3)o2)CC(c2cccnc2)=NO1 (stereo not shown),16.1
11,Cn1ccsc1=NC(=O)c1cc(S(=O)(=O)N2CCOCC2)ccc1F,0.934
12,CCn1c(SCc2ccccc2)nc2ccccc2c1=O,12.4
13,CC1N=C2c3ccccc3N=C(SCc3cc(=O)n4cc(Cl)ccc4n3)N2C1=O (stereo not shown),-40.2
14,O=C(O)CCCNc1cc(N2CCC3(CC2)OCCO3)c2noc3c2c1C(=O)c1ccccc1-3,12.1
15,Cc1[nH][nH]c(=O)c1C(c1c(C)[nH][nH]c1=O)c1cn(Cc2ccc(F)cc2)c2ccccc12,11.6
16,O=c1oc2ccccc2c(O)c1Sc1ccc(Cl)cc1,7.9
17,c1ccc(Oc2nc(-c3ccccn3)nc3ccccc23)cc1,7.47
18,CC(=O)c1ccc(NC(=O)C2CCCNC2=O)cc1 (stereo not shown),19.9
19,CCCNCc1cc(OCC)c(OCC(=O)Nc2ccccc2)cc1Br,3.59
20,COc1cccc(NC(=O)C(NCCc2ccc(S(N)(=O)=O)cc2)c2ccccc2)c1 (stereo not shown),2.07
21,CCOC(=O)c1ccc(S(=O)(=O)NC2CCC(C)CC2)cc1 (stereo not shown),0.0443
22,CC1CCN(c2c(NCC3CCC(C(=O)NC4CCCCCC4)CC3)c(=O)c2=O)CC1 (stereo not shown),9.32

row,SMILES,"hERG current change (%, negative = inhibition) at 1uM [%]"
1,Nc1nnc(SCCCC(=O)c2ccc(Br)cc2)s1,9.04
2,O=C(CCNS(=O)(=O)c1ccccc1F)N1CCN(C/C=C/c2ccccc2)CC1,1.31
3,O=C(COc1ncnc2sccc12)NC1CCCc2ccccc21 (stereo not shown),15.5
4,COc1cccc(CN2CC(C(=O)NC3CCCCCC3)CCC2=O)c1 (stereo not shown),12.5
5,CCC(=Nc1ccc(OC)cc1OC)c1c(O)n(C2CCCCC2)c(=O)[nH]c1=O,1.31
6,Cc1ccc(N(Cc2cc3ccc(C)cc3[nH]c2=O)C(=O)c2ccco2)cc1,0.475
7,CCN(CC)c1ccc(NC(=O)Nc2cccc3ccccc23)cc1,11.2
8,Cc1cccc(N2CCN(C(=O)C3CCC(=O)N(Cc4ccccc4F)C3)CC2)c1C (stereo not shown),15.8
9,COC(=O)Nc1ccc(Cn2cc(C(F)(F)F)ccc2=O)cc1,12.1
10,CCc1cccc(OC2OC(CO)C(O)C(O)C2NC(C)=O)c1 (stereo not shown),10.3
11,CC(=O)NCC1(O)CCCC(C)C1 (stereo not shown),17.7
12,C=CCNC(=O)c1ccc(NC(=O)C2=CSCCO2)cc1,0.0421
13,O=[N+]([O-])c1ccc2c(c1)c1ccccc1n2CCO,-0.971
14,CCCCN1C(=O)C(=O)NC[C@@H]1C(C)O (stereo partly shown),17.6
15,CC(=O)N[C@@H](C)c1nc2ccccc2n1CCNC(=O)[C@H]1CCCN1c1nc(CN2CCCCC2)cs1,13.3
16,Cc1nc(NC(=O)COc2ccccc2)sc1C(=O)Nc1cccc(Cl)c1,9.77
17,CC(NC(=O)c1ccccc1NC(=O)CN1CCc2ccccc2C1)c1ccccc1 (stereo not shown),17.1
18,c1ccc2c(c1)ncn2CCOCCOCCn1cnc2ccccc21,3.54
19,Cc1cc(N2CCN(c3ccccc3)CC2)nc(-c2ccccc2)n1,-15.1
20,COc1cc(C(=O)NCC(=O)NCC2COc3ccccc3O2)cc(OC)c1OC (stereo not shown),10
21,Cl.N[C@@H](Cc1ccc(O)cc1)c1nnc([C@H](CC(=O)O)NC(=O)C2CCNCC2)o1,12.5
22,Cc1ccc(-c2ccc(=O)n(CC(=O)Nc3ccc4c(c3)OCCO4)n2)cc1,-4.11

row,SMILES,"hERG current change (%, negative = inhibition) at 1uM [%]"
1,COc1ccc(C(=O)Nc2nnc(-c3ccco3)s2)cc1,8.68
2,O=C1CN(C(=O)CSc2nc3ccccc3c(=O)n2CC2CCCO2)c2ccccc2N1 (stereo not shown),4.54
3,COc1cc(Cl)c(C)cc1NC(=O)[C@@H]1CCCN1C(=O)c1cccs1,8.4
4,O=C(OCC(=O)N1CCc2ccccc2C1)c1ccc(Cl)c([N+](=O)[O-])c1,9.29
5,Cc1ccccc1Cn1ccc(NC(=O)c2cc3ncc(Br)cn3n2)n1,-6.66
6,CCCN1CCN(S(=O)(=O)c2cc3c(cc2C)NC(=O)CO3)CC1,4.93
7,CN(C)c1ccc(/C=C/C=C/c2sc3ccccc3[n+]2C)cc1.[O-][Cl+3]([O-])([O-])[O-],3.91
8,CCCCn1c(N)c(N(CC(C)C)C(=O)CN2C(=O)NC3(CC(C)CC(C)(C)C3)C2=O)c(=O)[nH]c1=O (stereo not shown),4.33
9,CCC(=O)N(Cc1ccco1)c1nc(-c2ccccc2)cs1,7.37
10,CCCCOC(=O)c1ccccc1N1C(=O)C2C3CCC(C3)C2C1=O (stereo not shown),7.32
11,O=C(Nc1ccccc1F)C(=Cc1sc(N2CCOCC2)nc1-c1ccccc1)C(=O)Nc1ccccc1F,12.5
12,Cc1ccc(-c2cccc(C(=O)NCCc3ccccc3)n2)c2ccccc12,10.9
13,Cn1c(N/N=C/c2cc3ccccc3nc2Cl)nc2ccccc21,11.1
14,c1ccc2c(c1)nnn2CNc1nccs1,12.3
15,Cc1ccc2sc(C)[n+](CCCS(=O)(=O)[O-])c2c1,17.4
16,CN(C(=O)CSc1nnc(C2CC2)n1C1CC1)C1(C#N)CCCCC1,-0.0297
17,COc1cc(CCCN2CCNC[C@@H]2C(C)O)cc(OC)c1OC (stereo partly shown),15.5
18,CCN1CCN(C(=O)c2ccc(Cl)c(S(=O)(=O)N3CCCCC3)c2)CC1,-24.2
19,CCN(CC(=O)NCc1cccs1)C(=O)c1ccc(NS(=O)(=O)c2ccc(C(C)=O)cc2)cc1,3.59
20,Cc1ccccc1NC(=O)CSc1nnc(-c2ccco2)n1N,12.9
21,O=c1nc2ccc(Cl)cn2c2ccc(S(=O)(=O)N3CCCCC3)cc12,9.86
22,Cn1c(=O)c2nc3ccccc3nc2n(C)c1=O,11.5

row,SMILES,"hERG current change (%, negative = inhibition) at 1uM [%]"
1,O=C(CC(=O)NC1CCCCC1)N/N=C/c1ccccc1F,13
2,COc1ccccc1NC(=O)c1ccc2c(c1)N(CC(=O)NC(C)C)C(=O)C(C)(C)O2,15.3
3,O=C(O)CCc1nnc(SCC(=O)Nc2cccc(C(F)(F)F)c2)[nH]c1=O,20.7
4,CCCN1C(=O)CC(Sc2ncccc2C(=O)O)C1=O (stereo not shown),7.75
5,CCOC(=O)c1c(NC(=S)Nc2ccc(OC)cc2)sc2c1CCC2,8.5
6,O=C(CSc1nc2ccccc2[nH]1)Nc1cc(C(F)(F)F)ccc1N1CCOCC1,-0.419
7,Cc1ccc(NC(=O)COc2ccc(S(=O)(=O)N3CCOCC3)cc2)cc1,13.6
8,CCOC(=O)C1(CCCc2ccccc2)CCN(C(=O)c2ccoc2)CC1,-1.47
9,COc1cc(/C=N/NC(=O)c2cccs2)ccc1OCc1ccccc1,9.14
10,Cc1nc2nc(SCC(=O)c3cccc([N+](=O)[O-])c3)[nH]c2cc1Br,9.12
11,Cc1noc(NS(=O)(=O)c2ccc(NC(=O)CC(C)C)cc2)c1C,16.9
12,COc1ccc(CN(Cc2cccnc2)C(=S)NCCc2ccccc2)cc1OC.O=C(O)C(=O)O,-3.6
13,Cc1cc2ccccc2n1CCNC(=O)c1ccc(S(=O)(=O)N2CCOCC2)cc1,14.3
14,COCC(C)Nc1ncnc2c1cnn2-c1ccc(Cl)cc1 (stereo not shown),10.1
15,Cc1cccc(C)c1OCCCN1CCCC1,8.78
16,CCc1ccc(-c2nc(SCC(=O)NC3CCS(=O)(=O)C3)n[nH]2)cc1 (stereo not shown),9.14
17,O=C(CCn1cncn1)N1CCCC(N2CCN(c3cccc(C(F)(F)F)c3)CC2)C1 (stereo not shown),-19.4
18,CC12CCCCC1=[N+]([O-])CN2O (stereo not shown),9.46
19,Cc1ccc(OCC(=O)N/N=C/c2cn(C)c3ccccc23)cc1,6.6
20,CCCCNC(=O)CNC(=S)N(Cc1ccc(C)cc1)Cc1ccco1,10.1
21,CCc1[nH]nc(C(=O)N2CCCC(C(=O)c3cccc(C(F)(F)F)c3)C2)c1C (stereo not shown),10.3
22,COc1ccccc1CNC(=O)C(=O)NCC1OCCCN1S(=O)(=O)c1cccs1 (stereo not shown),8.7
